Literature values, collected in patent publication US20040053864A1, “Methods and compositions for control of bone formation via modulation of neuropeptide y activity” (priority 2002, published 2004).

What was measured:
[1] = target: T1, NPY Y5 receptor (Homo sapiens, UniProt Q15761); details: preliminary results in U.S. Pat. No. 5,968,819; cited from earlier work
T1 sequence (Q15761 1-445): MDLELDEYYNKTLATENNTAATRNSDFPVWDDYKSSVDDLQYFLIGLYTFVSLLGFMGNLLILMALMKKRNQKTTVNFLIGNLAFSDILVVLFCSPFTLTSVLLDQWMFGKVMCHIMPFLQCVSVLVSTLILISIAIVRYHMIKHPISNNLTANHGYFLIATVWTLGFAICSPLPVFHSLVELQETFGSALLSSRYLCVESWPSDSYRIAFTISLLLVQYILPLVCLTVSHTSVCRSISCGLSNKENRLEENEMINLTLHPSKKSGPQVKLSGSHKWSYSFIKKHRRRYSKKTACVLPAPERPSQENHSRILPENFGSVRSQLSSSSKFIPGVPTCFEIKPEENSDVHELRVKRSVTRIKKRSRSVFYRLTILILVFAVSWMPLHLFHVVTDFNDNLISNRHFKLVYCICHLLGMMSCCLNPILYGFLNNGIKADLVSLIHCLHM

[2] = test system: NPY Y1 receptor; details: in vivo; from U.S. Pat. No. 5,571,695; cited from earlier work
[3] = target: T2, human NPY Y1 receptor (Homo sapiens, UniProt P25929); details: in vitro, cell lines transfected with human NPY Y1 receptor cDNA; from U.S. Pat. No. 5,571,695; cited from earlier work
T2 construct: expressed in transfected cells
T2 sequence (P25929 1-384): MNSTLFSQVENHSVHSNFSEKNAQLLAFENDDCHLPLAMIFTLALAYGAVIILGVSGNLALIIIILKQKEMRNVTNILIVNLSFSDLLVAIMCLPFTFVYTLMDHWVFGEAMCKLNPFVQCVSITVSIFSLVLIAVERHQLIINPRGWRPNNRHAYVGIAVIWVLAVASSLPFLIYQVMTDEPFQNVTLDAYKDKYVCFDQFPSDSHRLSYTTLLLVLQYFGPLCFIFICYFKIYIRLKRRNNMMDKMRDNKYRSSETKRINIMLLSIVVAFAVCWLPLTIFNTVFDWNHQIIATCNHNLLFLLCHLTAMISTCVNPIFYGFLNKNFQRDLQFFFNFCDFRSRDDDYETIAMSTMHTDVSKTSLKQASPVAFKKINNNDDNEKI

Compound	function at NPY Y5 receptor [1]	ability to block NPY Y1 receptor-mediated increases in blood pressure [2]	ability to block the NPY-induced increase in intracellular calcium [3]
NCC(N)(Cc1ccccc1)c1cccc2ccccc12 (stereo not drawn) [2-(Naphthalen-1-yl)-3-phenylpropane-1,2-diamine]	functions as an NPY Y5 receptor antagonist		
SALRHY: hexapeptide corresponding to residues 22-27 of the NPY molecule; NPY Y1 receptor antagonist (listed as Homo sapiens)		block NPY Y1 receptor-mediated increases in blood pressure	block the NPY-induced increase in intracellular calcium
